This is one part of the list.
Legend:
Assay in all cases: glycan array binding signal (z-score within array); higher = stronger binding
Conditions in all cases: glycan notation: IUPAC condensed, linker removed
[1] = target: Man(a1-2)Man(a1-3)[Man(a1-2)Man(a1-6)]Man(a1-6)[Man(a1-2)Man(a1-2)Man(a1-3)]Man(b1-4)GlcNAc(b1-4)GlcNAc
Procedure, shortened: (§1)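 The Consortium for Functional Glycomics database supplied 3228 glycan arrays, of which those lacking an available protein sequence were dropped. The binding signal, a within-array Z-score, was averaged across arrays of the same protein sequence and across linkers. Negative scores can be read as non-binding.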

[2] = target: Man(a1-2)Man(a1-3)[Man(a1-6)]Man(a1-6)[Man(a1-2)Man(a1-3)]Man(b1-4)GlcNAc(b1-4)GlcNAc
Procedure, shortened: as §1

[3] = target: Man(a1-2)Man(a1-6)[Man(a1-3)]Man(a1-6)[Man(a1-2)Man(a1-2)Man(a1-3)]Man
Procedure, shortened: as §1

[4] = target: Man(a1-2)Man(a1-6)[Man(a1-3)]Man(a1-6)[Man(a1-2)Man(a1-2)Man(a1-3)]Man(b1-4)GlcNAc(b1-4)GlcNAc
Procedure, shortened: as §1

Man(a1-3)[Man(a1-6)]Man = target: Man(a1-3)[Man(a1-6)]Man
Procedure, shortened: as §1

[5] = target: Man(a1-3)[Man(a1-6)]Man(a1-6)[Man(a1-2)Man(a1-3)]Man(b1-4)GlcNAc(b1-4)GlcNAc
Procedure, shortened: as §1

[6] = target: Man(a1-3)[Man(a1-6)]Man(a1-6)[Man(a1-3)]Man
Procedure, shortened: as §1

[7] = target: Man(a1-3)[Man(a1-6)]Man(a1-6)[Man(a1-3)]Man(b1-4)GlcNAc(b1-4)GlcNAc
Procedure, shortened: as §1

[8] = target: Man(a1-3)[Man(a1-6)]Man(b1-4)GlcNAc(b1-4)GlcNAc
Procedure, shortened: as §1

[9] = target: Man(a1-3)[Man(a1-6)]Man(b1-4)GlcNAc(b1-4)[Fuc(a1-6)]GlcNAc
Procedure, shortened: as §1

Man(a1-6)Man = target: Man(a1-6)Man
Procedure, shortened: as §1

Man(b1-4)GlcNAc = target: Man(b1-4)GlcNAc
Procedure, shortened: as §1

MurNAc(b1-4)GlcNAc = target: MurNAc(b1-4)GlcNAc
Procedure, shortened: as §1

Neu5Ac(a2-3)Gal = target: Neu5Ac(a2-3)Gal
Procedure, shortened: as §1

[10] = target: Neu5Ac(a2-3)Gal(b1-3)GalNAc
Procedure, shortened: as §1

[11] = target: Neu5Ac(a2-3)Gal(b1-3)GalNAc(b1-3)Gal(a1-4)Gal(b1-4)Glc
Procedure, shortened: as §1

[12] = target: Neu5Ac(a2-3)Gal(b1-3)GalNAc(b1-4)[Neu5Ac(a2-3)]Gal(b1-4)Glc
Procedure, shortened: as §1

[13] = target: Neu5Ac(a2-3)Gal(b1-3)GalNAc(b1-4)[Neu5Ac(a2-8)Neu5Ac(a2-3)]Gal(b1-4)Glc
Procedure, shortened: as §1

[14] = target: Neu5Ac(a2-3)Gal(b1-3)GalNAc6S
Procedure, shortened: as §1

[15] = target: Neu5Ac(a2-3)Gal(b1-3)GlcNAc
Procedure, shortened: as §1

[16] = target: Neu5Ac(a2-3)Gal(b1-3)GlcNAc(b1-2)Man
Procedure, shortened: as §1

[17] = target: Neu5Ac(a2-3)Gal(b1-3)GlcNAc(b1-2)Man(a1-3)[GlcNAc(b1-4)][Neu5Ac(a2-3)Gal(b1-3)GlcNAc(b1-2)Man(a1-6)]Man(b1-4)GlcNAc(b1-4)GlcNAc
Procedure, shortened: as §1

[18] = target: Neu5Ac(a2-3)Gal(b1-3)GlcNAc(b1-2)Man(a1-3)[Neu5Ac(a2-3)Gal(b1-3)GlcNAc(b1-2)Man(a1-6)]Man(b1-4)GlcNAc(b1-4)GlcNAc
Procedure, shortened: as §1

[19] = target: Neu5Ac(a2-3)Gal(b1-3)GlcNAc(b1-3)Gal(b1-3)GlcNAc
Procedure, shortened: as §1

[20] = target: Neu5Ac(a2-3)Gal(b1-3)GlcNAc(b1-3)Gal(b1-4)GlcNAc
Procedure, shortened: as §1

[21] = target: Neu5Ac(a2-3)Gal(b1-3)GlcNAc(b1-3)GalNAc
Procedure, shortened: as §1

[22] = target: Neu5Ac(a2-3)Gal(b1-3)GlcNAc(b1-4)Gal(b1-4)Glc
Procedure, shortened: as §1

[23] = target: Neu5Ac(a2-3)Gal(b1-3)GlcNAc(b1-6)GalNAc
Procedure, shortened: as §1

[24] = target: Neu5Ac(a2-3)Gal(b1-3)GlcNAc6S
Procedure, shortened: as §1

[25] = target: Neu5Ac(a2-3)Gal(b1-3)[Fuc(a1-4)]GlcNAc
Procedure, shortened: as §1

[26] = target: Neu5Ac(a2-3)Gal(b1-3)[Fuc(a1-4)]GlcNAc(b1-3)Gal(b1-3)[Fuc(a1-4)]GlcNAc
Procedure, shortened: as §1

[27] = target: Neu5Ac(a2-3)Gal(b1-3)[Fuc(a1-4)]GlcNAc(b1-3)Gal(b1-4)[Fuc(a1-3)]GlcNAc
Procedure, shortened: as §1

[28] = target: Neu5Ac(a2-3)Gal(b1-3)[GlcNAc(b1-6)]GalNAc
Procedure, shortened: as §1

[29] = target: Neu5Ac(a2-3)Gal(b1-3)[Neu5Ac(a2-6)]GalNAc
Procedure, shortened: as §1

[30] = target: Neu5Ac(a2-3)Gal(b1-3)[Neu5Ac(a2-6)]GlcNAc(b1-3)[Fuc(a1-3)[Gal(b1-4)]GlcNAc(b1-6)]Gal(b1-4)Glc
Procedure, shortened: as §1

[31] = target: Neu5Ac(a2-3)Gal(b1-3)]Neu5Ac(a2-3)Gal(b1-4)]GlcNAc
Procedure, shortened: as §1

Neu5Ac(a2-3)Gal(b1-4)Glc = target: Neu5Ac(a2-3)Gal(b1-4)Glc
Procedure, shortened: as §1

[32] = target: Neu5Ac(a2-3)Gal(b1-4)GlcNAc
Procedure, shortened: as §1

[33] = target: Neu5Ac(a2-3)Gal(b1-4)GlcNAc(b1-2)Man
Procedure, shortened: as §1

[34] = target: Neu5Ac(a2-3)Gal(b1-4)GlcNAc(b1-2)Man(a1-3)[GlcNAc(b1-4)][Neu5Ac(a2-3)Gal(b1-4)GlcNAc(b1-2)Man(a1-6)]Man(b1-4)GlcNAc(b1-4)GlcNAc
Procedure, shortened: as §1

[35] = target: Neu5Ac(a2-3)Gal(b1-4)GlcNAc(b1-2)Man(a1-3)[Neu5Ac(a2-3)Gal(b1-4)GlcNAc(b1-2)Man(a1-6)]Man(b1-4)GlcNAc(b1-4)GlcNAc
Procedure, shortened: as §1

[36] = target: Neu5Ac(a2-3)Gal(b1-4)GlcNAc(b1-2)Man(a1-3)[Neu5Ac(a2-3)Gal(b1-4)GlcNAc(b1-2)Man(a1-6)]Man(b1-4)GlcNAc(b1-4)[Fuc(a1-6)]GlcNAc
Procedure, shortened: as §1

[37] = target: Neu5Ac(a2-3)Gal(b1-4)GlcNAc(b1-2)Man(a1-3)[Neu5Ac(a2-6)Gal(b1-4)GlcNAc(b1-2)Man(a1-6)]Man(b1-4)GlcNAc(b1-4)GlcNAc
Procedure, shortened: as §1

[38] = target: Neu5Ac(a2-3)Gal(b1-4)GlcNAc(b1-2)[Neu5Ac(a2-3)Gal(b1-4)GlcNAc(b1-4)]Man(a1-3)[GlcNAc(b1-4)][Neu5Ac(a2-3)Gal(b1-4)GlcNAc(b1-2)[Neu5Ac(a2-3)Gal(b1-4)GlcNAc(b1-6)]Man(a1-6)]Man(b1-4)GlcNAc(b1-4)GlcNAc
Procedure, shortened: as §1

[39] = target: Neu5Ac(a2-3)Gal(b1-4)GlcNAc(b1-2)[Neu5Ac(a2-3)Gal(b1-4)GlcNAc(b1-4)]Man(a1-3)[GlcNAc(b1-4)][Neu5Ac(a2-3)Gal(b1-4)GlcNAc(b1-4)Man(a1-6)]Man(b1-4)GlcNAc(b1-4)GlcNAc
Procedure, shortened: as §1

B1: FliD (Clostridium difficile) (protein)
chain: MSSISPVRVTGLSGNFDMEGIIEASMIRDKEKVNKAKQDQQIVKWKQEIYRDIIKESKNLYDKYLNGDSPNSITNKKAYSATRITSSDESIIVAKGSAGAEKINYQFAVSQMAEPAKVTIKLNSSDPIVQQFPPNASGASSLNIGGVNIPISEQDTTSTIVSKINSLCADNDIRASYSEMTGELIISRKQTGSSSDIDLKVIGNDSLAGQIASDNGITFTTDASGTKSAVVYGKNLEADVTDDQGRVTHISKEQNSFKIDNIDYNVNSKGSAKLVSVTDTEEATKNMKAFVDDYNALMDKVYGLVTTKKSKDYPPLTDEQKDDMTTEEIEKWEKKAKEGILRNDDELRAFVEDIQSMFFGDADTIIALRKLGISEHENYNKKGQISFNADTFSKALIDDSDKVYKALAGYSSNYDDKGMFEKLKKIVFEYSGSSASKLTKKAGMENSSSASQNVYSKQIAEQERNISRLVEKMNDKEKRLYAKYSALESLLNKYSSQMNYFSQAQGN
Q: For B1, which “glycan array binding signal (z-score)” value [1] is on record?
A: -0.104

Q: And the “glycan array binding signal (z-score)” value [2]?
A: -0.233

Q: And the “glycan array binding signal (z-score)” value [3]?
A: -0.192

Q: What about the “glycan array binding signal (z-score)” value [4] of the same binder?
A: -0.154

Q: What about the “glycan array binding signal (z-score)” value (Man(a1-3)[Man(a1-6)]Man) of the same binder?
A: -0.205

Q: And the “glycan array binding signal (z-score)” value [5]?
A: 0.082

Q: And the “glycan array binding signal (z-score)” value [6]?
A: -0.075

Q: What about the “glycan array binding signal (z-score)” value [7] of the same binder?
A: -0.223

Q: What about the “glycan array binding signal (z-score)” value [8] of the same binder?
A: -0.208

Q: And the “glycan array binding signal (z-score)” value [9]?
A: -0.274

Q: What about the “glycan array binding signal (z-score)” value (Man(a1-6)Man) of the same binder?
A: 0.627

Q: What about the “glycan array binding signal (z-score)” value (Man(b1-4)GlcNAc) of the same binder?
A: -0.16

Q: And the “glycan array binding signal (z-score)” value (MurNAc(b1-4)GlcNAc)?
A: -0.199

Q: What about the “glycan array binding signal (z-score)” value (Neu5Ac(a2-3)Gal) of the same binder?
A: -0.168

Q: And the “glycan array binding signal (z-score)” value [10]?
A: -0.182

Q: And the “glycan array binding signal (z-score)” value [11]?
A: -0.195

Q: And the “glycan array binding signal (z-score)” value [12]?
A: -0.056

Q: What about the “glycan array binding signal (z-score)” value [13] of the same binder?
A: -0.219

Q: What about the “glycan array binding signal (z-score)” value [14] of the same binder?
A: 0.007

Q: What about the “glycan array binding signal (z-score)” value [15] of the same binder?
A: -0.234

Q: And the “glycan array binding signal (z-score)” value [16]?
A: -0.097

Q: What about the “glycan array binding signal (z-score)” value [17] of the same binder?
A: -0.213

Q: What about the “glycan array binding signal (z-score)” value [18] of the same binder?
A: -0.177

Q: What about the “glycan array binding signal (z-score)” value [19] of the same binder?
A: -0.261

Q: What about the “glycan array binding signal (z-score)” value [20] of the same binder?
A: -0.272

Q: And the “glycan array binding signal (z-score)” value [21]?
A: -0.254

Q: What about the “glycan array binding signal (z-score)” value [22] of the same binder?
A: -0.207

Q: And the “glycan array binding signal (z-score)” value [23]?
A: -0.069

Q: What about the “glycan array binding signal (z-score)” value [24] of the same binder?
A: -0.131

Q: And the “glycan array binding signal (z-score)” value [25]?
A: -0.192

Q: And the “glycan array binding signal (z-score)” value [26]?
A: -0.151

Q: What about the “glycan array binding signal (z-score)” value [27] of the same binder?
A: -0.183

Q: What about the “glycan array binding signal (z-score)” value [28] of the same binder?
A: -0.113

Q: What about the “glycan array binding signal (z-score)” value [29] of the same binder?
A: 0.001

Q: And the “glycan array binding signal (z-score)” value [30]?
A: -0.224

Q: What about the “glycan array binding signal (z-score)” value [31] of the same binder?
A: -0.184

Q: And the “glycan array binding signal (z-score)” value (Neu5Ac(a2-3)Gal(b1-4)Glc)?
A: -0.197

Q: And the “glycan array binding signal (z-score)” value [32]?
A: 0.135

Q: And the “glycan array binding signal (z-score)” value [33]?
A: 0.47

Q: What about the “glycan array binding signal (z-score)” value [34] of the same binder?
A: -0.213

Q: And the “glycan array binding signal (z-score)” value [35]?
A: -0.24

Q: What about the “glycan array binding signal (z-score)” value [36] of the same binder?
A: -0.21

Q: What about the “glycan array binding signal (z-score)” value [37] of the same binder?
A: -0.24

Q: What about the “glycan array binding signal (z-score)” value [38] of the same binder?
A: -0.237

Q: And the “glycan array binding signal (z-score)” value [39]?
A: -0.269

Source: the supplement of paper PMC8728848
